In all, about 33,000 sequences were measured (“E-score (-0.5 to 0.5)”: median about -0.032, highest 2% from about 0.36 on). The list shows a part of the results.
molecular target: T1, Sko1 (UniProt Q02100); assay: PBM E-score (8-mer binding enrichment) (E-score (-0.5 to 0.5)); higher = stronger / more preferred TF binding; most listed sequences are background and not binding sites; settings: protein concentration: 200 nM; construct: GST-full length
T1 sequence: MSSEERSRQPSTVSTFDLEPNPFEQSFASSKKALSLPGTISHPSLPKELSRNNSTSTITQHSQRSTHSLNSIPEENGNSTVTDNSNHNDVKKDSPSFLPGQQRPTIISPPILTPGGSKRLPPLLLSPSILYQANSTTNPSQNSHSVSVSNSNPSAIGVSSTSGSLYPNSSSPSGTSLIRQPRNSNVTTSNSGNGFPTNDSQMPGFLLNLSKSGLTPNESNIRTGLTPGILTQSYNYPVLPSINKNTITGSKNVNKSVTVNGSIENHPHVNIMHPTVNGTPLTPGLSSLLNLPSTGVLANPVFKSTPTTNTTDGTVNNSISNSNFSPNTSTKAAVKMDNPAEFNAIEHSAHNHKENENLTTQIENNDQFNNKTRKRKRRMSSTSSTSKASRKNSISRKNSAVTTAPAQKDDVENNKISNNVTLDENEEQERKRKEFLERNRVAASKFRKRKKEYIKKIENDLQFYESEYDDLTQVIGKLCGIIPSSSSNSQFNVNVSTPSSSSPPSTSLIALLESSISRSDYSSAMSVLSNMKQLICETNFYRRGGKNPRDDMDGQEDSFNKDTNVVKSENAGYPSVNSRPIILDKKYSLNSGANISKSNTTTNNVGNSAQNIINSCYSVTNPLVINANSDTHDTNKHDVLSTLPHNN
Outline: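 Yeast transcription factors carrying a GST tag, as full-length proteins or DNA-binding domains, were produced by PURExpress in vitro transcription/translation. About 100-200 nM protein was applied to universal all-10-mer Agilent arrays, double-stranded by primer extension on fresh or once-stripped slides. Bound protein was detected with fluorescent anti-GST, and scans were normalised with masliner. The Universal PBM Analysis Suite gave each ungapped eight-base word, pooled with its reverse complement, an E-score, a modified Wilcoxon-Mann-Whitney statistic.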

Sequence	PBM E-score
CGATACTC	-0.149
CCCAGGCA	-0.382
AACGGCCG	-0.14
AGACGTAC	0.395
AACCTCTC	-0.198
TGTTAGAA	0.0715
ACACCTAT	0.143
GGCTGGGA	-0.314
CATCCCGA	-0.132
GCCTCTCA	-0.182
GTATAAAA	0.249
GTAACTTA	0.262
GGTTTCAC	-0.0471
TCGTTAGA	-0.101
AGTTCTAT	-0.0676
ATGCGGAG	-0.244
ACAACATG	0.17
ACGAGTGA	0.162
CTGTTGGC	-0.256
GGCGCGAA	-0.151
GTGAACAC	0.00302
ATATATTA	0.295
AGTGACCA	-0.178
TCTTAGCA	-0.0369
AGTAAGTG	-0.0892

Sequence	PBM E-score
TCCGAACA	-0.124
AAAGGGGA	-0.232
ACACTGTG	0.126
ACACGCAC	0.158
CGCGCGAC	0.0535
CAGAAGGG	-0.147
ATCCGCCC	-0.285
GACACACA	0.178
ACGCCACG	0.229
CCGCCAGA	-0.0664
CAGCAGCC	-0.0687
ACGGTCAC	-0.121
CACGCAAC	0.379
AACACCTA	0.0909
CCCATGCC	-0.26
GCTACCCC	-0.342
CGTACCAC	0.253
GATAAGCC	-0.294
CCGCTCCA	-0.334
ACCCACCG	-0.0732
GTAATCAC	0.25
AGCGCACA	-0.121
CGTAGTTA	0.357
ATCGGGAA	0.0139
CACGCGTG	0.186

Sequence	PBM E-score
CCGATCAG	-0.185
TACCCAGA	-0.102
ACGTTAAT	0.32
CACCGAAC	-0.0581
CCCCGTTC	-0.171
AACCGTAC	-0.103
GCGGCCAA	-0.226
ATTCCTGG	-0.187
GAAGGGGA	-0.118
ATTACTAG	-0.023
ACATGGGA	-0.105
GGCTTGTA	-0.158
CCCGTAAA	-0.102
AGGCTCCA	-0.175
CATATTAG	0.203
GACCTTCC	-0.0895
GACCGGTC	-0.0591
GTATGTAA	0.312
CACAATTA	0.267
ACACGGAC	-0.113
CATCTCAC	0.0578
CTCTCTCA	-0.101
CTCCGGCC	-0.304
CACACACC	-0.149
AACCGATC	-0.0994

Sequence	PBM E-score
GTCACATA	0.32
AGCACCAA	-0.158
AAGGATTG	0.0863
ACATCGTG	0.0903
CCATCCGC	-0.0352
AAGTTTGT	0.0394
GCCTTACA	-0.0297
CGGATCAC	0.0411
AAGTTCTC	-0.203
AGTAAGCG	0.0351
CCACCGTC	-0.325
TATGCTAA	0.0795
AGACAGCC	-0.219
TATACGGA	0.00941
CCCTTTAA	-0.0757
CTGAACGA	-0.0578
AAGTACCG	-0.032
CACGCCTG	-0.0166
CGCATTGC	0.18
ATGCCGTA	0.169
ATCGAAGA	0.0616
CTCCTCTC	-0.299
GCCCCCAC	-0.315
CGTAATAA	0.434
TACAGCCA	-0.177

Sequence	PBM E-score
TTCCACAA	-0.0146
CGTATCGC	0.234
ACGAGGAC	-0.205
CGCACTAA	0.00313
CAAGGCAG	-0.285
AGGCGTGA	0.121
CCTCAAGG	-0.172
TGGCGTAA	0.414
ATGCAGGC	-0.024
CGATCCAC	0.0169
AAAGAGGC	-0.141
ACTGACAC	-0.0019
AAGGGAAT	0.109
ATTCCACC	-0.023
GAGCCGAA	-0.117
AAAACAAC	-0.0231
AAAATAAG	0.153
ATTGCTTC	-0.109
CAGGTTGA	-0.109
CCTCCATC	-0.249
CACATAGG	0.0316
GCGCCTCA	-0.268
CGAACGCA	0.253
AACCGGCA	-0.294
ATCGCGGC	-0.0416

Sequence	PBM E-score
CCATGCAG	-0.171
AGGGCAAC	-0.12
ACATTTCT	0.0757
CACTCAAG	-0.0751
CCCTTAAA	0.0491
CCCATATC	-0.0139
ATTTCCAG	-0.028
GCTTCTAA	0.0137
CGCAACAA	0.298
ATCTTAAT	0.125
CTGGTTAC	-0.00958
ATTTGGGG	-0.0232
TCGGCCCA	-0.0925
CAAGCGAA	0.124
GGCTCGGA	-0.342
CAAAGTTA	0.0387
CCTTAGTC	-0.154
GAGGCGAC	-0.29
AGCAACTA	0.0346
GGTAGGGA	-0.0404
AAGGCCGG	-0.304
TCGTTACA	0.0698
GCTTAGAA	0.049
AATCCATC	-0.0322
CTGTAGCA	-0.162

Sequence	PBM E-score
GAGTTCCA	-0.0907
AGCGTGCC	-0.142
ACTGGCTA	-0.178
CTCAGTAC	-0.0699
CGTTTCTC	-0.0661
GCTGTCCC	-0.146
CGCCCCAA	-0.0448
ACATCGAA	0.152
AGATAGGA	-0.166
AGGAGTAG	-0.0306
AGGACCAA	-0.0737
AACTCCAA	-0.0583
CCACCTAC	0.165
CATAAAAG	0.0278
CAACAAGA	0.0102
AGAAACAC	0.113
CCCGCTAC	-0.15
ACTTACAT	0.152
AAAAGGAT	0.0687
GACGTCAC	0.487
ACCATAAC	0.158
CCTCTGTC	-0.185

From the supplement of paper PMC3334620
